# Test results taken from the supplement of paper PMC10126150.
# Values marked as one replicate rest on one cluster of the flow cell; about a third of the high ones do not repeat.
# Tested on: ATP
# Experiment: switch fluorescence ratio, 500 uM ATP over buffer (Cy3 cluster intensity, sum of 5 cycles each) (fold (ratio)); higher = stronger signal-on switching upon ATP binding; sequences stand for … in TCGTCGGCAGCGTCAGATGTGTATAAGAGACAGTTTTTTTTTTTTTTTTTTTTTTTTT…TC
# Settings: aptamer strand: ATP DNA aptamer (quencher-CACCTGGGGGAGTATTGCGGAGGAAGG + anchor), 100 nM annealed; ATP concentration: 500 uM; one replicate
# Summary of the method: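 Exposure to 500 uM ATP lasted 15 min at 22 °C before imaging, and a selection-buffer image was taken beforehand, for Cy3-labelled switching-strand clusters on a modified Illumina MiSeq flow-cell annealed to 100 nM quencher-labelled ATP aptamer. Five buffer/ATP cycles were run with NaOH stripping and re-annealing between them. The fluorescence ratio per cluster is summed target-cycle over summed buffer-cycle Cy3 intensity, averaged per switch-domain sequence. Clusters outside 100-1000 RFU were excluded.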
row,Sequence,switch fluorescence ratio
1,CGTGACTCG,0.955
2,CGTGACTGGA,1.02
3,CGTGAGACTA,1.05
4,CGTGAGATA,1.02
5,CGTGATACCT,1.38
6,CGTGATGCTT,1.03
7,CGTGATTATG,1.05
8,CGTGCAATGA,2.65
9,CGTGCACTAT,0.963
10,CGTGCAGATT,1
11,CGTGCAGGAA,0.988
12,CGTGCTCTTA,1
13,CGTGCTTGA,1.08
14,CGTGGGGCCT,1.01
15,CGTGGGTCGG,0.977
16,CGTGGTGGAA,1.04
17,CGTGGTTCAA,0.951
18,CGTGTACAA,1.03
19,CGTGTCGTGT,0.988
20,CGTGTCTTA,1.04
21,CGTGTGCCTA,1.03
22,CGTGTGCGCA,1
23,CGTGTTACAC,1.01
24,CGTGTTATTC,0.985
25,CGTGTTCATG,1.02
26,CGTTACGAAA,1.04

row,Sequence,switch fluorescence ratio
1,CGTTAGTCCT,1.02
2,CGTTATATA,1.26
3,CGTTCAGAT,1.14
4,CGTTCGTCAT,1.06
5,CGTTCTGCAG,0.945
6,CGTTGAAGTG,0.957
7,CGTTGAGCGT,1
8,CGTTGATTG,0.956
9,CGTTGGATCG,1.07
10,CGTTGGTTAC,0.993
11,CGTTGTGAAA,1
12,CGTTGTGC,1.1
13,CGTTTAAAAC,0.993
14,CGTTTACGAT,0.996
15,CGTTTAGTTT,1
16,CGTTTCTGAC,0.986
17,CGTTTCTTCA,1.02
18,CGTTTGATAC,1.71
19,CGTTTTAAAT,0.975
20,CGTTTTAACC,0.984
21,CGTTTTATTA,0.951
22,CGTTTTATTC,1.07
23,CGTTTTCTAT,0.97
24,CGTTTTTCCA,1
25,CTAAACGGCC,1.04
26,CTAAACGTTC,1.07

row,Sequence,switch fluorescence ratio
1,CTAAAGCCCG,0.964
2,CTAACAGGCC,1.01
3,CTAACAGTTG,0.988
4,CTAACCTAAT,1.07
5,CTAACGAGAG,1.04
6,CTAACGAGGC,1.22
7,CTAACGGGCG,0.951
8,CTAACGGTAG,0.976
9,CTAACTGTTT,0.962
10,CTAACTTCGT,0.994
11,CTAACTTTTT,1.07
12,CTAAGCCCGT,1
13,CTAAGCTTTT,0.996
14,CTAAGGAGAA,0.949
15,CTAAGGAGGA,1.05
16,CTAAGGTGCT,1.37
17,CTAAGGTTCC,1.09
18,CTAAGTCGGA,0.975
19,CTAAGTTTCA,0.951
20,CTAATCATAT,0.958
21,CTAATCGTGG,0.978
22,CTAATCTGTT,0.976
23,CTAATTAACT,0.984
24,CTAATTCTGG,0.973
25,CTACACGTG,1.04
26,CTACAGGTGC,2.51

row,Sequence,switch fluorescence ratio
1,CTACATAGTG,1.03
2,CTACCAGTAA,1.21
3,CTACCATGCT,1.07
4,CTACCTTAT,1.11
5,CTACGAATAT,1.27
6,CTACGCCGTC,1.11
7,CTACGTTAGC,1.38
8,CTACTCGGCG,1.16
9,CTACTCTGGT,0.996
10,CTAGAACTTG,0.997
11,CTAGAAGACA,0.998
12,CTAGAAGGAC,1.04
13,CTAGATTTTT,0.97
14,CTAGCCCTG,1
15,CTAGCGAGTT,1.01
16,CTAGCGCCTC,1.11
17,CTAGGAAGTG,1.02
18,CTAGGCTAGA,1.04
19,CTAGGTCCAA,1.07
20,CTAGGTCCTT,0.977
21,CTAGTAAGT,1.02
22,CTAGTACCGC,1.05
23,CTAGTAGCTG,0.962
24,CTAGTATGTG,0.914
25,CTAGTCGGAA,1.03
26,CTAGTCTTAT,0.987

row,Sequence,switch fluorescence ratio
1,CTAGTGCACC,1.01
2,CTAGTGCCCC,1.13
3,CTAGTGCTTA,1.01
4,CTAGTGGGTG,1.02
5,CTAGTGTCCG,1.01
6,CTAGTGTCTA,1.04
7,CTAGTGTGTG,1
8,CTAGTTAGAT,0.954
9,CTATAAACAG,1.01
10,CTATAAATG,1
11,CTATAATTGT,0.98
12,CTATACAAGT,1.01
13,CTATACATA,1.14
14,CTATACGGAA,1.22
15,CTATAGAGTC,0.99
16,CTATAGTCGG,1
17,CTATATCCTG,1.05
18,CTATATCGC,1.02
19,CTATATGTTT,1.02
20,CTATATTGTC,1.03
21,CTATCAGCTC,1.06
22,CTATCTGGTG,1.16
23,CTATCTGGTT,1.02
24,CTATGAACTC,1.02
25,CTATGAAGAT,0.993
26,CTATGCAAGT,1.28

row,Sequence,switch fluorescence ratio
1,CTATGCGATG,1.06
2,CTATGCTACG,0.993
3,CTATGCTATC,1.74
4,CTATGGATGT,0.973
5,CTATGGTAGC,1.01
6,CTATGTATTA,1.05
7,CTATGTTGTG,0.981
8,CTATGTTTCC,1
9,CTATTAAGTC,0.979
10,CTATTAATAA,1.11
11,CTATTACGGG,0.971
12,CTATTCGGT,1.03
13,CTATTCTAAG,0.987
14,CTATTCTAGC,1.09
15,CTATTGCAC,1.07
16,CTATTGCGGC,0.972
17,CTCAAATGTG,1.02
18,CTCAAGAGGT,1.02
19,CTCAAGTGT,1.01
20,CTCAATAGAA,1.03
21,CTCAATGGGA,2.19
22,CTCAATGGTG,1.44
23,CTCAATGTCT,0.975
24,CTCAATGTG,1
25,CTCACATCGT,0.989
26,CTCACGAGGT,1.03

row,Sequence,switch fluorescence ratio
1,CTCACGGCTA,1.15
2,CTCAGACCGG,0.997
3,CTCAGCAAAT,2.77
4,CTCAGCGGTT,1.32
5,CTCAGGCTTT,1.03
6,CTCAGGGTCG,1.01
7,CTCAGTAGGA,1.01
8,CTCATCCTGT,1.05
9,CTCATGAGGG,1.01
10,CTCATGCATG,0.993
11,CTCATGCTAT,2.05
12,CTCATTCGAG,1.01
13,CTCATTTTTA,0.987
14,CTCCAACTTG,0.996
15,CTCCACGAGA,1.14
16,CTCCATGAA,1.13
17,CTCCATGACC,1.18
18,CTCCATGAT,1.09
19,CTCCCAGCGC,1.81
20,CTCCCCGCGG,2.2
21,CTCCCTCGTC,1.17
22,CTCCGATAGC,6.3
23,CTCCTAAGAT,1.15
24,CTCCTATAGG,1.07
25,CTCCTCCATG,2.35
26,CTCCTTAAGG,1.03

row,Sequence,switch fluorescence ratio
1,CTCCTTCTCA,1.01
2,CTCCTTTTTG,1
3,CTCGAAGA,0.975
4,CTCGAAGTCT,0.976
5,CTCGAATGGT,0.98
6,CTCGACAGC,1.06
7,CTCGACCGGT,1.01
8,CTCGACGTGA,1.24
9,CTCGAGAAAA,1.03
10,CTCGAGCCGA,1.05
11,CTCGATGGTA,1.01
12,CTCGATTTAG,1.01
13,CTCGCAAC,2.03
14,CTCGCACGCG,1.04
15,CTCGCGTTCA,1.03
16,CTCGCTCGGG,1.25
17,CTCGCTTTGG,1.06
18,CTCGGAACGG,1.01
19,CTCGGCGGAA,1.14
